# Data: paper PMC10668032
# This is one part of the list. At the low end of the ranking the order means little.
# Target: SIX1 homeodomain (reference allele) (UniProt Q15475)
# Test: universal protein binding microarray
# Conditions: Universal all-10-mer PBM (8x60K, AMADID 030236), 300 nM GST-tagged protein, Alexa Fluor 488 anti-GST; buffer, salt, pH and temperature not stated; high values mean tight binding; most listed sequences are background and not binding sites; double strand, one strand shown
row,Sequence,binding signal [E-score]
1,CGGGTCTA,0.222
2,CCAGAAAA,-0.162
3,CTAGTGGA,0.0328
4,CTTCAGCC,-0.208
5,CCATAAAA,-0.249
6,GCGAGAAA,-0.0399
7,GAAAGAGC,-0.291
8,GAAAGCTA,-0.135
9,GGATCTAA,0.285
10,CTAGCCTA,-0.101
11,ATTTATGC,-0.211
12,AGTGCCGG,-0.246
13,ACAGGGGC,-0.0302
14,CCGGTCGC,-0.127
15,TGCCACAA,-0.116
16,AAATAGAA,-0.101
17,CCAAGCAG,-0.0514
18,ATCGTTTC,0.0417
19,CTCTGCAC,-0.117
20,GTTAACAA,-0.199
21,AGCGGCCC,-0.00783
22,ACTGCATG,-0.116
23,CAAAACTG,-0.136
24,CTATTATC,0.189
25,CCAACAGG,-0.202

row,Sequence,binding signal [E-score]
1,AGCCAAAG,-0.0013
2,CTGTCCGC,-0.122
3,CCCGAAGA,0.0118
4,AAAATGGG,-0.351
5,ATGCAACG,-0.0952
6,GGCAGTTA,-0.138
7,GTGTGAAC,-0.103
8,ATGACTGG,-0.244
9,GCCCTTAA,-0.0831
10,GTGAGTTA,-0.165
11,TATAAGCA,0.0532
12,AATTATCT,0.077
13,ATAGAGAA,0.0744
14,CAAGGGCA,-0.186
15,TAAGGTAA,0.0235
16,CCGTCGCG,0.045
17,CTTAAAAG,-0.185
18,TGACTCAA,-0.258
19,AGTGAAAT,-0.146
20,ATAGAGTA,0.115
21,CGGGGCTC,0.118
22,AGATGCAG,-0.058
23,GAACATAA,-0.128
24,AAAAAGCC,-0.314
25,GCTTAAAA,-0.155

row,Sequence,binding signal [E-score]
1,ACCTGGCC,-0.0954
2,CCTTAGCC,0.076
3,ATTACTTA,0.00012
4,ATCGTTGA,0.153
5,CGTAACTA,-0.131
6,ATAGACGA,-0.0258
7,ACCCCCGG,0.204
8,CATTGGAC,-0.187
9,CTGCTTCC,-0.22
10,AATAAGTC,-0.295
11,CAAGGGTG,-0.0445
12,CTCACCAG,0.114
13,ACGTCTCG,0.0654
14,CCTAGCGC,-0.225
15,AGGGTCCG,-0.135
16,CCCAGCCA,-0.016
17,CCATCGAG,0.0901
18,CGACGTAC,-0.178
19,AATGCCAG,-0.238
20,ACTGCGCC,-0.162
21,CCGGACAG,-0.129
22,AGGCGTCA,-0.155
23,ACTGCGAA,-0.369
24,AAACAATT,-0.235
25,CTGGATAC,0.387

row,Sequence,binding signal [E-score]
1,GACGGAGA,0.041
2,ACTTACGG,-0.102
3,ATGTTACC,-0.0599
4,TTCGGAAA,-0.327
5,ATCCACTG,0.152
6,ACGGATAG,0.344
7,CGCGTTGA,-0.228
8,CCCGTCCA,-0.0528
9,TGCACGCA,-0.22
10,GACATAAA,-0.158
11,CCATATCG,0.454
12,GTTTTCTA,-0.122
13,ACATGTAA,-0.0393
14,ATACGATA,0.419
15,GGAGCAAA,-0.258
16,ACTGTACG,-0.205
17,CACGTCGA,-0.0592
18,ACTAGAAG,0.00466
19,CCTTAGAA,-0.033
20,ACAGGCCG,-0.118
21,AGGTCCTA,-0.0891
22,CGTCACTA,0.0459
23,CTATCGGA,0.289
24,AACGTGGT,0.000195
25,GGAAGCCA,-0.0636

row,Sequence,binding signal [E-score]
1,AGGGGAAG,0.0743
2,AAAGTATA,0.173
3,CAGCTAAG,-0.196
4,TGCAACAA,-0.0996
5,CCCTTGTA,0.0338
6,CAATTATA,-0.0613
7,ACCAAAGG,-0.00859
8,CTGCCTCC,-0.173
9,ACGAGTAG,0.0478
10,AAATGGCT,-0.138
11,CTGGGTGA,0.0389
12,CGGACCAC,0.121
13,CGTACTAG,-0.118
14,ATCCTCGG,0.23
15,ATACATGA,0.231
16,GCCTCCGA,-0.116
17,ACCTAGGA,0.0208
18,ATCACGCC,0.26
19,AGACCGTG,-0.243
20,GTAGGAGA,0.00658
21,CTGCGGGC,-0.131
22,AGAAAATA,0.0317
23,GGAGCTCA,0.08
24,AACGTGAC,-0.316
25,CTGTCGAC,-0.148

row,Sequence,binding signal [E-score]
1,TGAATCCA,-0.0503
2,CCGGTAGC,-0.0821
3,GTAATTTA,-0.181
4,AATACTCT,0.257
5,CTCTGAAG,-0.21
6,AGTTATAC,0.129
7,AGCATCTC,0.0255
8,ATAAGAGA,0.00476
9,AAACCGCC,-0.0558
10,ACAGGTGA,0.082
11,GCGTCCAA,-0.193
12,GAGGGATC,0.397
13,AAAAGAAC,-0.167
14,CTGTCCCC,-0.115
15,GTCGTGCA,-0.078
16,CGTATGTC,0.0105
17,CAGCAGAG,-0.0676
18,CCTTGTAG,0.0203
19,ACTGGCAA,-0.195
20,GGCTACAA,-0.0318
21,ACCTCAAG,-0.13
22,AGCCTAGA,-0.131
23,ATTCCGCC,-0.108
24,GTCAATGA,0.026
25,GCATACAC,0.155

row,Sequence,binding signal [E-score]
1,ACAGTGCT,-0.0238
2,AATCGTGA,-0.0818
3,TATACCCA,0.401
4,TAACTGTA,-0.0825
5,CAGTTAAC,-0.113
6,AGAACGCT,-0.162
7,GTCATCAA,-0.0944
8,CACACGGG,0.148
9,GCGGCCAC,-0.244
10,CGTTAAAC,-0.175
11,CCCACGAG,0.0722
12,ATCGTACA,0.142
13,ATGCAAAT,-0.069
14,GGTCTATA,0.063
15,ACTAAACC,0.114
16,CTCTCTTC,-0.0476
17,ACCGAAAC,0.0577
18,CCCCTTAG,-0.0404
19,AGCGCTGG,-0.264
20,GAGCCCAC,0.135
21,TCGCTACA,-0.254
22,TACTGCTA,0.189
